# Some of the results follow.
# Test system: HSkMC (human skeletal muscle cells)
# Experiment: cytotoxicity call (relative viability < 0.9)
# Settings: 10 µM
row,SMILES,cytotoxicity call
1,C[C@H](CO)N1C[C@H](C)[C@@H](CN(C)Cc2ccc(-c3ccccc3)cc2)Oc2ccc(NC(=O)NC3CCCCC3)cc2CC1=O,inactive
2,C[C@H]1CCCCO[C@H](CN(C)S(=O)(=O)c2cn(C)cn2)[C@@H](C)CN([C@@H](C)CO)C(=O)c2cc(NS(=O)(=O)c3cn(C)cn3)ccc2O1,inactive
3,C[C@@H]1CCCCO[C@@H](CN(C)C(=O)Nc2ccc3c(c2)OCO3)[C@@H](C)CN([C@H](C)CO)C(=O)c2cc(NC(=O)CCCCCC(=O)Nc3ccccc3N)ccc2O1,inactive
4,COc1cccc(C#Cc2cnc3c(c2)C(=O)N([C@H](C)CO)C[C@H](C)[C@H](CN(C)C(=O)C2CCC2)O3)c1,inactive
5,C[C@H](CO)N1C[C@H](C)[C@@H](CN(C)C(=O)C2CCCCC2)Oc2ncc(C#CC3(O)CCCC3)cc2C1=O,inactive
6,COc1ccccc1-c1cccc(-c2nc(C(=O)NCc3ccncc3)cc3c2[C@@H](CCO)N([S@](=O)C(C)(C)C)C3)c1,inactive
7,C[C@@H]1CN([C@@H](C)CO)C(=O)CCCn2cc(nn2)CO[C@@H]1CN(C)C(=O)Nc1ccc2c(c1)OCO2,inactive
8,C[C@@H]1CCCCO[C@@H](CN(C)Cc2ccc(Cl)c(Cl)c2)[C@@H](C)CN([C@@H](C)CO)C(=O)c2cc(NS(=O)(=O)c3cn(C)cn3)ccc2O1,inactive
9,C[C@@H]1CN([C@@H](C)CO)C(=O)Cc2cc(NC(=O)Cn3cnnn3)ccc2O[C@@H]1CN(C)CC1CCCCC1,inactive
10,COc1ccc(CN(C)C[C@H]2Oc3c(NC(=O)Nc4ccc(C(F)(F)F)cc4)cccc3C(=O)N([C@@H](C)CO)C[C@@H]2C)cc1,inactive
11,C[C@H](CO)N1C[C@H](C)[C@@H](CN(C)C(=O)Nc2ccc3c(c2)OCO3)Oc2c(NC(=O)c3ccncc3)cccc2C1=O,inactive
12,COc1ccc(NC(=O)N(C)C[C@@H]2OCCCC[C@H](C)Oc3ccc(NC(=O)Nc4ccc(C(F)(F)F)cc4)cc3C(=O)N([C@H](C)CO)C[C@@H]2C)cc1,inactive
13,CCNC(=O)C[C@H]1CC[C@@H](NC(=O)C2CC2)[C@H](CO)O1,inactive
14,COc1ccc(S(=O)(=O)N(C)C[C@@H]2Oc3c(NC(=O)C4CC4)cccc3C(=O)N([C@H](C)CO)C[C@@H]2C)cc1,inactive
15,Cc1noc(C)c1NC(=O)N(C)C[C@@H]1OCCCC[C@H](C)Oc2ccc(NC(=O)Nc3ccccc3)cc2C(=O)N([C@@H](C)CO)C[C@@H]1C,inactive
16,C[C@H](CO)N1C[C@H](C)[C@H](CN(C)S(=O)(=O)c2ccc(-n3cccn3)cc2)OCc2cn(nn2)CCCC1=O,inactive
17,C[C@H]1CCCCO[C@@H](CN(C)S(=O)(=O)c2ccc(F)cc2)[C@@H](C)CN([C@@H](C)CO)C(=O)c2cc(NS(=O)(=O)c3ccc(Cl)cc3)ccc2O1,inactive
18,CC(=O)N(C)C[C@H]1Oc2ncc(C#C[C@H](C)O)cc2C(=O)N([C@H](C)CO)C[C@@H]1C,inactive
19,COc1cc2c(cc1OC)CN(C(=O)[C@H]1[C@@H]3C(=O)O[C@@H](c4ccccc4)[C@@H](c4ccccc4)N3[C@@H](c3ccc(O)cc3)[C@]13C(=O)Nc1ccc(C#CC4(O)CCCCCC4)cc13)CC2,inactive
20,Cc1ccc(S(=O)(=O)N(C)C[C@@H]2Oc3c(NC(=O)C4CCOCC4)cccc3C(=O)N([C@H](C)CO)C[C@@H]2C)cc1,inactive
21,O=C(O)c1cncc(C(=O)O)c1,inactive
22,COc1ccc(CN(C)C[C@@H]2Oc3c(NC(=O)Nc4ccc(C(F)(F)F)cc4)cccc3C(=O)N([C@H](C)CO)C[C@H]2C)cc1,active
23,Cc1noc(C)c1S(=O)(=O)Nc1cccc2c1O[C@@H](CN(C)CC1CC1)[C@@H](C)CN([C@@H](C)CO)C2=O,inactive
24,Nc1cnc2ncc(N)cc2c1,inactive
25,CN(Cc1ccc(/C=C/C(=O)Nc2ccc(-c3cccs3)cc2N)cc1)CC12CC3CC(CC(C3)C1)C2,inactive
26,CC(=O)NC1C(O)CC(O)(C(=O)O)OC1C(O)C(O)CO (stereo not drawn),inactive
27,COc1ccc(C(=O)Nc2cccc(CN3C(=O)[C@@]4(O[C@@H](CC(=O)N5Cc6ccccc6C[C@H]5CO)[C@H]([Si](C)(C)c5ccc(OC)cc5)[C@H]4C)c4ccccc43)c2)cc1,inactive
28,COc1ccc(CN(C)C[C@@H]2OCCCC[C@@H](C)Oc3ccc(NC(=O)Nc4ccc(F)cc4)cc3C(=O)N([C@H](C)CO)C[C@H]2C)cc1,inactive

# — the antibiotic and cytotoxicity screens of Wong et al. (2023)
